{"source": "the antibiotic and cytotoxicity screens of Wong et al. (2023)", "key": {"HSkMC": {"system": "HSkMC", "assay": "cytotoxicity call (relative viability < 0.9)", "conditions": "10 µM"}, "HepG2": {"system": "HepG2", "assay": "cytotoxicity call (relative viability < 0.9)", "conditions": "10 µM"}, "S. aureus RN4220": {"system": "S. aureus RN4220", "assay": "growth inhibition call (relative growth <= 0.2)", "conditions": "50 µM"}}, "note": "The list shows a part of the results."}
{"smiles": "Cc1ccc(S[C@]2(C(=O)O)CC(=O)N(Cc3ccccc3Cl)[C@@H]2c2ccc(CO)cc2I)cc1", "values": [{"measurement": "cytotoxicity call", "setting": "HSkMC", "result": "inactive"}, {"measurement": "cytotoxicity call", "setting": "HepG2", "result": "inactive"}, {"measurement": "growth inhibition call", "setting": "S. aureus RN4220", "result": "inactive"}]}
{"smiles": "CO/N=C1\\C[C@]2(C[C@@H]3C[C@@H](C/C=C(\\C)C[C@@H](C)/C=C/C=C4\\CO[C@@H]5[C@H](O)C(C)=C[C@@H](C(=O)O3)[C@]45O)O2)O[C@H](/C(C)=C/C(C)C)[C@H]1C", "values": [{"measurement": "cytotoxicity call", "setting": "HSkMC", "result": "active"}, {"measurement": "cytotoxicity call", "setting": "HepG2", "result": "active"}, {"measurement": "growth inhibition call", "setting": "S. aureus RN4220", "result": "inactive"}]}
{"smiles": "COc1ccc(S(=O)(=O)Nc2ccc3c(c2)C(=O)N([C@@H](C)CO)C[C@@H](C)[C@@H](CN(C)Cc2ccc(C(F)(F)F)cc2)OCCCC[C@@H](C)O3)cc1", "values": [{"measurement": "cytotoxicity call", "setting": "HSkMC", "result": "inactive"}, {"measurement": "cytotoxicity call", "setting": "HepG2", "result": "active"}, {"measurement": "growth inhibition call", "setting": "S. aureus RN4220", "result": "inactive"}]}
{"smiles": "C[C@H]1CCCCO[C@H](CN(C)CC2CC2)[C@@H](C)CN([C@@H](C)CO)C(=O)c2cc(NC(=O)CCC(F)(F)F)ccc2O1", "values": [{"measurement": "cytotoxicity call", "setting": "HSkMC", "result": "inactive"}, {"measurement": "cytotoxicity call", "setting": "HepG2", "result": "inactive"}, {"measurement": "growth inhibition call", "setting": "S. aureus RN4220", "result": "inactive"}]}
{"smiles": "C[C@@H]1CN([C@H](C)CO)C(=O)c2cccc(NC(=O)c3ccc(-c4nccs4)cc3)c2O[C@@H]1CN(C)Cc1ccc(Oc2ccccc2)cc1", "values": [{"measurement": "cytotoxicity call", "setting": "HSkMC", "result": "inactive"}, {"measurement": "cytotoxicity call", "setting": "HepG2", "result": "inactive"}, {"measurement": "growth inhibition call", "setting": "S. aureus RN4220", "result": "inactive"}]}
{"smiles": "C[C@@H]1CN([C@H](C)CO)C(=O)c2cccc(NC(=O)c3cnccn3)c2O[C@@H]1CN(C)S(=O)(=O)c1cn(C)cn1", "values": [{"measurement": "cytotoxicity call", "setting": "HSkMC", "result": "inactive"}, {"measurement": "cytotoxicity call", "setting": "HepG2", "result": "inactive"}, {"measurement": "growth inhibition call", "setting": "S. aureus RN4220", "result": "inactive"}]}
{"smiles": "COc1ccc(S(=O)(=O)Nc2cccc3c2O[C@@H](CN(C)Cc2ccc(-c4ccccc4)cc2)[C@@H](C)CN([C@@H](C)CO)C3=O)cc1", "values": [{"measurement": "cytotoxicity call", "setting": "HSkMC", "result": "inactive"}, {"measurement": "cytotoxicity call", "setting": "HepG2", "result": "inactive"}, {"measurement": "growth inhibition call", "setting": "S. aureus RN4220", "result": "inactive"}]}
{"smiles": "Cc1noc(C)c1NC(=O)N(C)C[C@H]1Oc2cc(C#CCN(C)C)ccc2S(=O)(=O)N([C@@H](C)CO)C[C@@H]1C", "values": [{"measurement": "cytotoxicity call", "setting": "HSkMC (human skeletal muscle cells)", "result": "inactive"}, {"measurement": "cytotoxicity call", "setting": "HepG2", "result": "inactive"}, {"measurement": "growth inhibition call", "setting": "S. aureus RN4220", "result": "inactive"}]}
